# In all, about 310,000 compounds went through this assay and about 14,000 (4.5%) showed an effect of 50% or more. Effects have a minus sign here. Some of the results follow.
# Molecular target: human ether-à-go-go-related gene (hERG) potassium channel (human, UniProt Q12809)
# Assay: primary screen, population patch clamp on CHO cells stably expressing hERG
# 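Note: peak tail current of the secondary pulse compared with the same well before compound.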
# Sequence of human ether-à-go-go-related gene (hERG) potassium channel (Q12809 whole entry, looked up): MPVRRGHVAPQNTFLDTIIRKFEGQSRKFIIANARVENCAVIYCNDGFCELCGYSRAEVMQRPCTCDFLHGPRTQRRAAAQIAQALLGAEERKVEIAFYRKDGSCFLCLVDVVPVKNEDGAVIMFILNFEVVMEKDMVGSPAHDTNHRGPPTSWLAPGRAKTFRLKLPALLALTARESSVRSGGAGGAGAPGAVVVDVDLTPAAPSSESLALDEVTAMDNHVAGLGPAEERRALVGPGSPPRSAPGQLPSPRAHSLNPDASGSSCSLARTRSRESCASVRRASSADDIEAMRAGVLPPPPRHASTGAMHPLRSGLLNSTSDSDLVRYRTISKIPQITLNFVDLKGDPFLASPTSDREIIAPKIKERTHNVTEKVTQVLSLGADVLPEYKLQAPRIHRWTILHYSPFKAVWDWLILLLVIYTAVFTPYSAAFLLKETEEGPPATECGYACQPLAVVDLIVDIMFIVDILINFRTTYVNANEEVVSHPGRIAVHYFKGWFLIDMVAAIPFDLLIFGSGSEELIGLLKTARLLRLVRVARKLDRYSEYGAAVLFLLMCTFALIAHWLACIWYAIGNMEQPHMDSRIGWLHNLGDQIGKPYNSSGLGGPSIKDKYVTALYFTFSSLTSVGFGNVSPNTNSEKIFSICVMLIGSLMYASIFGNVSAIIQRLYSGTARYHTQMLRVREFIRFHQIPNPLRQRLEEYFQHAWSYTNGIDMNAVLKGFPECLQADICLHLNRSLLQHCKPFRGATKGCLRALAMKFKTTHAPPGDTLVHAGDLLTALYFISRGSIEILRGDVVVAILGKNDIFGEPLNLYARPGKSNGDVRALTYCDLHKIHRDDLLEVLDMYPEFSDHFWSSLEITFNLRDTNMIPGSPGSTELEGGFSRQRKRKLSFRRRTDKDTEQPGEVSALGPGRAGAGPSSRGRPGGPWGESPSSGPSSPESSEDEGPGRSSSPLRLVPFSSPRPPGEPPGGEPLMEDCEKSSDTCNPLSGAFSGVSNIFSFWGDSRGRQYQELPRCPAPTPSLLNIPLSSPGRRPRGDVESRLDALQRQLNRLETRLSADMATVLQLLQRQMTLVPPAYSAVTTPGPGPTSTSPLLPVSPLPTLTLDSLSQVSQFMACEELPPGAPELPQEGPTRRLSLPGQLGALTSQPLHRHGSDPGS
row,SMILES,"hERG current change (%, negative = inhibition) at 10uM"
1,NC(=O)CC(NC(=O)c1ccc(Br)cc1)c1ccc(N2CCCCCC2)c([N+](=O)[O-])c1 (stereo not drawn),-7.79%
2,C=C1N2CCC(CC2)C1(O)c1ccc(C)c(C)c1.Cl (stereo not drawn),9.86%
3,O=C(CN1C(=O)CCC1=O)NCC12CC3CC(CC(C3)C1)C2,-4.05%
4,COC(=O)c1ccc(NS(=O)(=O)c2ccc(OC)cc2)cc1,-3.31%
5,CCCCN(C)CCNC(=O)c1cc2c(-c3ccccc3F)nn(C)c2s1,-48%
6,N#Cc1nccnc1N1CCN(C(=O)Nc2ccccc2)CC1,5.22%
7,COc1cc(C(=O)Nc2cc(-c3cn4cccnc4n3)ccc2C)cc(OC)c1OC,1.74%
8,Cc1ccnc(SC2CC(=O)N(c3ccc(F)cc3)C2=O)n1 (stereo not drawn),8.46%
9,CCCSc1cc(NCCOC(C)=O)c([N+](=O)[O-])c2nonc12,-45.3%
10,O=[N+]([O-])c1c(Nc2ccccc2O)ccc2nonc12,0.726%
11,O=C(Nc1ccc2c(c1)CCC2)c1cccs1,24.7%
12,CCc1ccccc1NC(=S)N(CCN1CCOCC1)Cc1ccccc1F,1.86%
13,Cc1ccc(NC(=O)c2nsc(Cl)c2Cl)cc1,5.34%
14,c1ccc(-c2nccc(-c3ccc(-n4cnc5ccccc54)cc3)n2)cc1,9.7%
15,Cc1ccc(C2C(C#N)=C(N)SC(N)=C2C#N)c(C)c1,16.6%
16,O=C(CSc1n[nH]c(-c2cccs2)n1)N1CCCCC1,-0.465%
17,COc1cccc(C(=O)NNC(=O)CCc2ccccc2)c1,8.13%
18,Cc1cccc(N2CCN(CC(=O)Nc3nccs3)CC2)c1C,-45.3%
19,CCOc1ccc(CCNC(=O)COC(=O)c2ccc(Br)o2)cc1OCC,7.98%
20,COc1ccc2[nH]c3c(c2c1)CCC/C3=N\N,12.8%
21,Cc1ccc(CCS(=O)(=O)c2ccc(C(C)(C)C)cc2)cn1,17%
22,CCOc1ccccc1-n1c(SCC(=O)NC2CCCC2)nnc1-c1ccoc1C,-24%
23,Cn1cc(CN2CCCC(C(=O)Nc3cccc(-n4cccn4)c3)C2)cn1 (stereo not drawn),-5.79%

row,SMILES,"hERG current change (%, negative = inhibition) at 10uM"
1,CN1C(=O)C(CCC(=O)O)NC1=S (stereo not drawn),0.141%
2,CCOC(=O)c1cn(CC(=O)Nc2ccc(C(C)C)cc2)nn1,4.62%
3,O=C1C(Cl)=C(N2CCCC2)C(=O)N1c1ccccc1F,13.8%
4,CC1CCN(C(=O)CCc2ccc(S(=O)(=O)NC(C)(C)C)cc2)CC1,-5.31%
5,Cc1cccc(-n2ncc3c2CCCC3NC(=O)C2(C(N)=O)CC2)c1C (stereo not drawn),7.42%
6,COc1cc(/C=C(\C#N)C(=O)NC(C)C)ccc1OCc1ccc(C(=O)O)cc1,7.22%
7,O=C(c1ccc2c(c1)OCO2)N1CCCc2ccccc21,7.07%
8,O=C(Cn1cnc2cc(Cl)ccc2c1=O)Nc1ccc2c(c1)OCO2,-3.18%
9,CC(C)(C)OC(=O)NNc1c2ccccc2nc2ccccc12,-27.7%
10,COc1ccc(N2CC(C(=O)Nc3cccc(C)n3)CC2=O)cc1 (stereo not drawn),11.9%
11,COc1ccc(-c2cc(=O)oc3cc(OCc4nn[nH]n4)ccc23)cc1,11.5%
12,O=[N+]([O-])c1cccc(O)c1,19%
13,COc1cccc(OCC(O)CN2CCc3ccccc3C2)c1.Cl (stereo not drawn),-71.1%
14,CCOC(=O)N1CCN(CCC(=O)Nc2ccc(Br)cc2)CC1,-33.2%
15,CCCCn1nc(C(=O)N[C@@H](CCSC)c2nc3ccccc3[nH]2)c2ccccc2c1=O,-28.7%
16,Cc1c(N=C/C=C2/N(C)c3ccccc3C2(C)C)c(=O)n(-c2ccccc2)n1C,-38.1%
17,Cc1ccc(C(=O)NCC(c2ccco2)N2CCc3ccccc32)cc1C (stereo not drawn),-60.1%
18,O=C(CCCn1cnc2ccccc2c1=O)Nc1ccccc1F,-2.21%
19,CC(=O)Nc1ccc(NC(=O)C(C)OC(=O)CSc2ccc(Br)cc2C)cc1 (stereo not drawn),19.8%
20,CN(C)CCCNc1nc(-c2ccc(Cl)cc2)nc2ccccc12,-35.5%
21,CC(CN1CCCCC1)OC(=O)c1ccc(Cl)cc1Cl.Cl (stereo not drawn),-27.5%
22,COc1ccc(C[C@H]2CN3C(=NC[C@@H]3C(C)C)N2CCNC(=O)CCC2CCCCC2)cc1,-80.4%
23,CC(=O)N1CCN(CC(=O)Nc2sccc2C#N)CC1,17.8%

row,SMILES,"hERG current change (%, negative = inhibition) at 10uM"
1,Fc1cccc(CSc2nc3ccncc3[nH]2)c1,2.88%
2,CCN(CC)S(=O)(=O)c1ccc(NC(=O)COC(=O)c2cc(S(=O)(=O)Nc3ccc(OC)cc3)ccc2O)cc1,19.2%
3,O=C(NCc1cccc(Cl)c1)c1cnn2c1NC(c1ccco1)CC2C(F)(F)F (stereo not drawn),-27.1%
4,O=C(CN1CCCC1)Nc1ccccc1Sc1ccc(Cl)cc1,-31.1%
5,O=C(Nc1cc(C(F)(F)F)ccc1N1CCOCC1)c1c(F)c(F)c(F)c(F)c1F,4.24%
6,Cn1nc(-c2ccccc2)c(-c2nc(-c3cccc(C(F)(F)F)c3)no2)c1Cl,17.4%
7,COc1cccc(CNCc2ccc3c(c2)OCO3)c1.O=C(O)C(=O)O,13.7%
8,O=C(O)c1cc(S(=O)(=O)Nc2cc(Cl)ccc2Oc2ccccc2)ccc1O,22.9%
9,CCn1c(SCC(N)=O)nc2ccccc2c1=O,9.04%
10,CCOC(=O)C1CCN(C(=O)C2(NC(=O)Nc3ccc(F)cc3F)CCCCC2)CC1,-4.71%
11,Cc1cnc([N+](=O)[O-])n1CCOC(=O)NC(=O)c1ccccc1,7.99%
12,COc1cc(CCC(=O)OCC(=O)Nc2ccc3c(c2)OCO3)cc(OC)c1OC,4.94%
13,Cn1ncc2nc[nH]c(=O)c21,9.16%
14,O=C(NCc1cccnc1)c1cccc(-c2cc3ccccc3oc2=O)c1,-63.9%
15,CC(Sc1nc2ncc(Cl)cc2[nH]1)C(=O)Nc1ccc(C(N)=O)cc1 (stereo not drawn),6.76%
16,Cn1c2c(c(=O)[nH]c1=O)C(NC(=O)c1ccco1)(C(F)(F)F)C(=O)N2 (stereo not drawn),5.51%
17,Cc1ccc(NC(=O)/C(C#N)=C/c2ccc(C)s2)c(C)c1,13.1%
18,Cc1cc(C)c2c3c(sc2n1)C(c1ccccc1)C(C#N)=C(N)O3 (stereo not drawn),-9.48%
19,Cn1cc(CNC(=O)C2c3ccccc3Oc3ccccc32)cn1,13.5%
20,c1ccc(Oc2cc(-n3cccn3)ncn2)cc1,-23.3%
21,O=Cc1ccccc1OCc1ccc2c(c1)OCO2,-7.75%
22,CCN(CC)CCNc1nc2c(c(=O)[nH]c(=O)n2C)n1CCCc1ccccc1,-46.9%
23,COC(=O)C1=NNC(C(=O)c2ccco2)C1c1ccc(OC)cc1 (stereo not drawn),15.1%

row,SMILES,"hERG current change (%, negative = inhibition) at 10uM"
1,Clc1ccc(/C=N/c2c(-c3ccc(Cl)cc3)nc3n2CCS3)cc1,1.1%
2,C/[N+]([O-])=C\c1ccc([N+](=O)[O-])o1,-1.36%
3,C=CCn1c(SCC(=O)N2CCc3ccccc3C2)nc2sc(C)cc2c1=O,-7.46%
4,COc1ccc2c(c1)sc(N)[n+]2Cc1cc(C)cc2cccnc12.[Br-],-74%
5,CN1C[C@@H]2C[C@@H](c3ccc(C#CC(C)(C)O)s3)N3CCC[C@@]23C1=O,9.88%
6,Cc1cccc(NC(=O)CCNC(=O)c2ccco2)c1,38.1%
7,O=C(OC1CCOC1=O)C1CCN(S(=O)(=O)c2ccccc2)CC1 (stereo not drawn),3.67%
8,CCOC(=O)CSc1nc(C(C)C)nc2ccccc12,1.16%
9,O=C(CN1CCN(S(=O)(=O)c2ccccc2[N+](=O)[O-])CC1)NC(=O)NCc1ccco1,-5.96%
10,CCOc1ccc(NC(=O)N2CCC(c3nc4ccccc4[nH]3)CC2)cc1,-0.677%
11,CCOC(=O)c1c(NC(C)=O)no[n+]1[O-],5.4%
12,CCCC(=O)Nc1nnc(/C=C/c2ccccc2)s1,14.8%
13,Cc1cc(Nc2ccc(C)c(F)c2)n2ncnc2n1,3.25%
14,Cc1ccc2nsnc2c1S(=O)(=O)N1CCCC1C(=O)O (stereo not drawn),3.79%
15,O=C1CC(c2ccccc2)CC(O)=C1C=NCCN1CCN(C(=S)Nc2cccc(Cl)c2)CC1 (stereo not drawn),-39.4%
16,CCN(CC(=O)Nc1cccc(S(N)(=O)=O)c1)Cc1nc2ccccc2c(=O)[nH]1,3.49%
17,O=C(Nc1ccc2c(c1)OCO2)C1CC(c2c(F)cccc2Cl)=NO1 (stereo not drawn),-11.4%
18,COc1cc(C(=O)Nc2ccc(NC(=O)c3ccccc3)nc2)cc(OC)c1OC,9.58%
19,Cc1ccc(S(=O)(=O)NCC(C)n2cncn2)cc1C (stereo not drawn),21.1%
20,C[C@H]1C=C(C(=O)N2CCN(Cc3ccc4c(c3)OCO4)CC2)O[C@@H](OCc2ccc(CO)cc2)C1,-70.7%
21,CCOC(=O)N1CCC(N2C(=O)c3ccc(C(=O)NCc4ccc(F)cc4)cc3C2=O)CC1,-17.4%

# Source: PMC4336329 (PLoS ONE, 2015)
